Measurements taken from PubChem BioAssay AID624417 (National Center for Advancing Translational Sciences (NCATS), 2012).
Hit rate of the full screen: of about 410,000 compounds, about 6,400 (1.6%) were called active. The inconclusive results got no clear call from the source; some entries with a clear call stand among them for comparison. The call rests on the fitted dose curve; in most records, active means well fitted inhibition curve with a large enough effect; inconclusive means small, poorly fitted or top-dose-only effect; inactive means no such curve, though single readings can be large or run the other way. A potency beside an inconclusive call is a rough fit, not a confirmed value.

Target: Glucagon-like peptide 1 receptor (Homo sapiens) (UniProt P43220)
Chain of UniProt P43220 (P43220 whole entry, looked up): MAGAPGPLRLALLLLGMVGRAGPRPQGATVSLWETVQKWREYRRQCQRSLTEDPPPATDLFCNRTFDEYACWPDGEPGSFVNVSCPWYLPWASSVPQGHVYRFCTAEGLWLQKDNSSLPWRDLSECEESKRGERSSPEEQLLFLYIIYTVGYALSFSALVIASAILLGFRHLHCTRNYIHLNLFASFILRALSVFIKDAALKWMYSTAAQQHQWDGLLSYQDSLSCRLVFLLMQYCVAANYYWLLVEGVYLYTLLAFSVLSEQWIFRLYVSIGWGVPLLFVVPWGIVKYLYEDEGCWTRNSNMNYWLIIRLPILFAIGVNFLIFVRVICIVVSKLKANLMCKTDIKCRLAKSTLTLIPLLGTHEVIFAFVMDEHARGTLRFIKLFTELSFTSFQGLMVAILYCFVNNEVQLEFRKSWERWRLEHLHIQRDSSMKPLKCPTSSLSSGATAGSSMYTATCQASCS
Assay: qHTS of GLP-1 Receptor Inverse Agonists (Inhibition Mode); further: nearly all actives have a fitted effect of over 55% in size
Settings: HEK293 GLP-1R CRE-luciferase, luminescence, 24 h, GLP-1R form is constitutively active; series mostly up to 38.3 µM
Procedure, shortened: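 Using stably transfected HEK293 (constitutively active GLP-1R, cAMP-luciferase reporter), compounds were incubated 24 hr and luciferase measured by luminescence.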
Potency means the concentration at half of the fitted maximal effect; tags describe the fitted curve by direction and shape.

Potency, active:
CCCN1CCN(c2ncnc3sc(C(=O)Nc4ccc(OC(F)(F)F)cc4)c(C)c23)CC1 10 µM
COc1cccc(CNC(=O)CN(c2cc(C)cc(C)c2)S(=O)(=O)c2c(C)noc2C)c1 10 µM

Potency, inconclusive:
CC1CCN(S(=O)(=O)c2ccc3c(c2)N(CC(=O)N(C)Cc2ccccc2)C(=O)CO3)CC1 11.2 µM [inhibitor, single point]
CC(CSc1n[nH]c(=S)s1)c1ccccc1 (configuration not stated) 28.2 µM [inhibitor, single point]
CCN(CC)c1ccc(/C=N/N2CCN(Cc3cccc4ccccc34)CC2)c(O)c1 28.2 µM [inhibitor, single point]
COc1ccc(OC)c(Nc2nc(NCCO)c3ccccc3n2)c1 31.6 µM [inhibitor, single point]
O=C(Nc1cccc(C(F)(F)F)c1)c1ccc2nc(-c3ccco3)c(-c3ccco3)nc2c1 14.1 µM [inhibitor, single point]
Cc1ccc(S(=O)(=O)NCCCNc2ccc([N+](=O)[O-])cc2)cc1 28.2 µM [inhibitor, single point]
COc1ccc(-c2noc3c2-c2nc(-c4ccccc4C)sc2CC3)cc1 2.24 µM [inhibitor, full curve, poor fit]
CC1=CC(C)(C)N(C(=O)c2ccccc2)c2ccc(C)cc21 17.8 µM [inhibitor, partial curve, poor fit]
CCCCN(C(=O)CCC(=O)Nc1cc(C)on1)C(C(=O)NC1CCCC1)c1ccccc1C (configuration not stated) 31.6 µM [inhibitor, single point]
O=C(NC1(C(F)(F)F)N=C(c2ccccc2)N(Cc2ccccc2)C1=O)c1ccc(F)cc1 (configuration not stated) 12.6 µM [inhibitor, single point]
Cc1ccc(C)c(NS(=O)(=O)c2ccc3c(c2)NC(=O)CO3)c1 22.4 µM [inhibitor, single point]
Cc1cc(-c2ccc(C)c(S(=O)(=O)Nc3ccc(C)c(N(C)C)c3)c2)on1 31.6 µM [inhibitor, single point]
COc1cc2ccccc2cc1C(=O)Nc1ccc(N2CCN(C)CC2)cc1 1.26 µM [inhibitor, partial curve, poor fit]
Cc1c(C)c(C)c(S(=O)(=O)N2CCNCC2)c(C)c1C 31.6 µM [inhibitor, partial curve, poor fit]
Cc1onc(-c2c(Cl)cccc2Cl)c1C(=O)N1CCc2ccccc21 2.24 µM [inhibitor, full curve, poor fit]
CCCCN(CC)CCCNC(=O)c1ccc2c(c1)N(Cc1ccc(C)cc1)C(=O)c1ccccc1S2 15.8 µM [inhibitor, partial curve, poor fit]
CC[C@H](C)[C@@H](C(=O)NCCCCCCCCCCC(=O)N1CCN(C(=O)OC(C)(C)C)CC1)n1cc(CCCCCNC(=O)OC(C)(C)C)nn1 28.2 µM [inhibitor, single point]
O=C(NCC(c1ccco1)N1CCCCC1)c1ccc(S(=O)(=O)Nc2ccccc2)cc1 (configuration not stated) 12.6 µM [inhibitor, partial curve, poor fit]
COCCCN(Cc1cc(OC)c(OC)c(OC)c1)C(=S)Nc1cccc(Cl)c1 31.6 µM [inhibitor, single point]
CCc1ccc(N(CC(=O)Nc2nc3ccc(C)cc3s2)S(=O)(=O)c2c(C)noc2C)cc1 28.2 µM [inhibitor, single point]
Cc1ccc(C(O)c2ncc(-c3cccc(C(F)(F)F)c3)[nH]2)cc1F (configuration not stated) 11.2 µM [inhibitor, partial curve, poor fit]
COc1ccc(S(=O)(=O)N2CCCCCC2)cc1C(=O)N(C)CCOc1ccc(Cl)cc1 11.2 µM [inhibitor, single point]
COC(=O)c1ccc(Cn2c(C)c(C(=O)Nc3cccc(Oc4ccccc4)c3)sc2=O)o1 28.2 µM [inhibitor, single point]
O=C(CN1CCN(S(=O)(=O)c2ccccc2F)CC1)Nc1ccccc1C(=O)c1ccccc1 31.6 µM [inhibitor, single point]
Cc1ccc(CC(=O)OC(C)C(=O)NC2CCCCC2C)cc1C (configuration not stated) 10 µM [inhibitor, partial curve, poor fit]
CCOC(=O)C1=C(C)N(C[C@@H]2CC[C@@H](Cc3ccc4cc(OC)ccc4c3)O2)C(=O)NC1c1ccccc1 (some centres not stated) 28.2 µM [inhibitor, single point]
COc1cc(/C=C/CO)cc(OC)c1OC/C=C(\C)CCC=C(C)C 11.2 µM [inhibitor, partial curve, poor fit]
CCC(NC(=O)CCCc1ccccc1)c1ccccc1 (configuration not stated) 20 µM [inhibitor, single point]
CN1CCC(NC(=O)c2cc(-c3cccc(Br)c3)nc3ccccc23)CC1 6.31 µM [inhibitor, partial curve, poor fit]
O=C(NCc1ccccc1)C1=C[C@@H](c2ccc(C(F)(F)F)cc2)C[C@@H](OCc2ccc(CO)cc2)O1 28.2 µM [inhibitor, single point]
O=C(O)c1ccccc1C(=O)N1CC=C(c2ccccc2)CC1 28.2 µM [inhibitor, single point]
CCN(CC)CCC(O)(c1ccc2c(c1)OCO2)c1cc(OC)c(OC)c(OC)c1 (configuration not stated) 31.6 µM [inhibitor, single point]
O=C(CSc1nnnn1-c1ccc(F)cc1)c1ccc(O)c(O)c1 28.2 µM [inhibitor, single point]
CN(CC(=O)Nc1ccc(F)cc1)C(=O)Cn1cnc2ccc([N+](=O)[O-])cc2c1=O 1.12 µM [inhibitor, full curve, poor fit]
Cc1ccc(N/C=C(/C#N)c2ccsc2)cc1 11.2 µM [inhibitor, single point]
COc1ccc(-c2csc(N(CCCN(C)C)C(=O)c3cc(OC)c(OC)c(OC)c3)n2)cc1 14.1 µM [inhibitor, partial curve, poor fit]
Cc1noc(C)c1-c1ccc(C(=O)NCc2ccncc2)c2occc12 11.2 µM [inhibitor, single point]
Cc1ccc(C)c(N=Nc2ccc(O)c3ncccc23)c1 3.98 µM [inhibitor, partial curve, poor fit]
Cc1cc(NC(=O)c2cnn(-c3ccccc3)c2-n2cccc2)ccc1Br 2.51 µM [inhibitor, full curve, poor fit]
CCOC(=O)C(C(=O)OCC)C(C)(C)/C(C)=N\Nc1ccc([N+](=O)[O-])cc1[N+](=O)[O-] 3.55 µM [inhibitor, single point]
Cc1ccc(-c2cc(C(=O)N3N=C(C(F)F)CC3(O)C(F)F)c3ccccc3n2)cc1C (configuration not stated) 15.8 µM [inhibitor, partial curve, poor fit]
O=C1[C@H]2[C@@H](c3ccccc3)N[C@]3(CCCN(Cc4ccc(Br)cc4)C3=O)[C@H]2C(=O)N1Cc1ccccc1 12.6 µM [inhibitor, single point]
CC(=O)c1cccc(-c2cnc3c(NC=O)cc(-c4ccc(N(C)C)cc4)cn23)c1 28.2 µM [inhibitor, single point]
CC(C)(C)c1ccc(NC(=O)COC(=O)c2ccc3ncsc3c2)cc1 25.1 µM [inhibitor, single point]
CN(C)C(CNC(=O)c1ccc(C(=O)c2ccccc2)cc1)c1ccccc1 (configuration not stated) 31.6 µM [inhibitor, partial curve, poor fit]
Cn1c(C(=O)NCc2ccccc2Cl)cc2sc(Cl)cc21 11.2 µM [inhibitor, partial curve]
CCC(=O)NC1=C(NC(C)c2ccccc2)C(=O)c2ccccc2C1=O (configuration not stated) 1.26 µM [inhibitor, full curve, poor fit]

Potency, inactive:
Cn1cnc(S(=O)(=O)N2CCC(C(=O)Nc3ccc(OC(F)(F)F)cc3)CC2)c1
Cc1ccc(C(=O)NCCNS(=O)(=O)c2ccccc2)cn1
O=C(CCCc1nc(-c2ccc(Cl)cc2)no1)NCc1ccco1
O=S(=O)(c1ccc(NC(=S)Nc2ccccc2)cc1)N1CCOCC1
COc1cc(NC(=O)COCc2cc(-c3ccc4c(c3)OCO4)on2)c(OC)cc1Cl
OC(c1ccc(F)cc1)c1nc(-c2cncnc2)cs1 (configuration not stated)
COc1cc(NS(=O)(=O)c2cc(Br)cc3c2N(C(C)=O)C(C)C3)cc(OC)c1 (configuration not stated)
O=C1CCCc2nc(N3CCCCC3)sc21
O=c1[nH]c(=S)[nH]cc1Oc1ccc(Br)cc1Br
COc1cccc(CNC(=O)CN(c2ccc(C)cc2)S(=O)(=O)N(C)C)c1OC
COc1cccc(-c2nc3c(C#N)c[nH]n3c2NC2CCCCC2)c1
O=C(Nc1ccc(C(=O)N2CCCCC2)cc1)C1CCC1
COC(=O)c1[nH]c2cccc(OC)c2c1NC(=O)CCN1CCC(C)CC1
